Laboratory results from PMC11911400, “Mechanism of ASF1 engagement by CDAN1” (Nature Communications, 2025).
Results are given in words; binding and its absence hold for the method and conditions named. Binding seen in cells or lysates may run through a third protein. Some binding calls cover weakened binding; strength is not graded here. Where a sequence is shown, tags or fusion partners need not be part of it.

Amino acid sequences for entries named in this document (tags omitted).
UniProt Q9NVP2: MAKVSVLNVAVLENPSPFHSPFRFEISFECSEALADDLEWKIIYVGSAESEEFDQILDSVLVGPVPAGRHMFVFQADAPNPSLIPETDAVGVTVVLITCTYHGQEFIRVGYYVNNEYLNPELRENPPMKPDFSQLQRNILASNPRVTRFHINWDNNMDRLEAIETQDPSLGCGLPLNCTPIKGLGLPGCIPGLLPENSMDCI
UniProt Q9Y294: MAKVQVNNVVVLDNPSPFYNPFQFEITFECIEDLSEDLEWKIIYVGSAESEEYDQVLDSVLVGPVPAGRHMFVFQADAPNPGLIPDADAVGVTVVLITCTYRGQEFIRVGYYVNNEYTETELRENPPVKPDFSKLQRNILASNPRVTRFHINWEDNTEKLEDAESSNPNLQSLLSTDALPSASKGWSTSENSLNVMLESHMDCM

T1: endogenous CDIN1 with a C-terminal HaloTag-FLAG (HF) tag (human (endogenous in Flp-In 293 T-REx)) (UniProt Q9Y2V0)
T1 sequence: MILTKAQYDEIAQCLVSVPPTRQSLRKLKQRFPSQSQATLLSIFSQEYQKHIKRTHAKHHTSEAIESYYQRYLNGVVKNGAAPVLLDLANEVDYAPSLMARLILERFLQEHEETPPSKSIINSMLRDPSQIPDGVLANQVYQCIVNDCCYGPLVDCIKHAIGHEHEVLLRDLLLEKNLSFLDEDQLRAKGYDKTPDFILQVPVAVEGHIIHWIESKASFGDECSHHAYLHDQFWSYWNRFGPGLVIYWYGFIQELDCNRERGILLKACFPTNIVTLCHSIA

T2: Strep-tagged CDAN1 (ST-CDAN1), wildtype (human, UniProt Q8IWY9 1-1227)
T2 construct: Codanin-1 (CDAN1), human, 1227 residues; cDNA from Horizon Discovery/Dharmacon, its point mutation S421F corrected; same construct used in Expi293 and in Flp-In 293 T-REx cells; dimer by SEC-MALS and cryo-EM; also called Strep-CDAN1; WT CDAN1; source: Expi293, transiently transfected, in lysate and purified in complexes (anti-FLAG, Strep-Tactin); Flp-In 293 T-REx, transiently transfected, in …
T2 sequence: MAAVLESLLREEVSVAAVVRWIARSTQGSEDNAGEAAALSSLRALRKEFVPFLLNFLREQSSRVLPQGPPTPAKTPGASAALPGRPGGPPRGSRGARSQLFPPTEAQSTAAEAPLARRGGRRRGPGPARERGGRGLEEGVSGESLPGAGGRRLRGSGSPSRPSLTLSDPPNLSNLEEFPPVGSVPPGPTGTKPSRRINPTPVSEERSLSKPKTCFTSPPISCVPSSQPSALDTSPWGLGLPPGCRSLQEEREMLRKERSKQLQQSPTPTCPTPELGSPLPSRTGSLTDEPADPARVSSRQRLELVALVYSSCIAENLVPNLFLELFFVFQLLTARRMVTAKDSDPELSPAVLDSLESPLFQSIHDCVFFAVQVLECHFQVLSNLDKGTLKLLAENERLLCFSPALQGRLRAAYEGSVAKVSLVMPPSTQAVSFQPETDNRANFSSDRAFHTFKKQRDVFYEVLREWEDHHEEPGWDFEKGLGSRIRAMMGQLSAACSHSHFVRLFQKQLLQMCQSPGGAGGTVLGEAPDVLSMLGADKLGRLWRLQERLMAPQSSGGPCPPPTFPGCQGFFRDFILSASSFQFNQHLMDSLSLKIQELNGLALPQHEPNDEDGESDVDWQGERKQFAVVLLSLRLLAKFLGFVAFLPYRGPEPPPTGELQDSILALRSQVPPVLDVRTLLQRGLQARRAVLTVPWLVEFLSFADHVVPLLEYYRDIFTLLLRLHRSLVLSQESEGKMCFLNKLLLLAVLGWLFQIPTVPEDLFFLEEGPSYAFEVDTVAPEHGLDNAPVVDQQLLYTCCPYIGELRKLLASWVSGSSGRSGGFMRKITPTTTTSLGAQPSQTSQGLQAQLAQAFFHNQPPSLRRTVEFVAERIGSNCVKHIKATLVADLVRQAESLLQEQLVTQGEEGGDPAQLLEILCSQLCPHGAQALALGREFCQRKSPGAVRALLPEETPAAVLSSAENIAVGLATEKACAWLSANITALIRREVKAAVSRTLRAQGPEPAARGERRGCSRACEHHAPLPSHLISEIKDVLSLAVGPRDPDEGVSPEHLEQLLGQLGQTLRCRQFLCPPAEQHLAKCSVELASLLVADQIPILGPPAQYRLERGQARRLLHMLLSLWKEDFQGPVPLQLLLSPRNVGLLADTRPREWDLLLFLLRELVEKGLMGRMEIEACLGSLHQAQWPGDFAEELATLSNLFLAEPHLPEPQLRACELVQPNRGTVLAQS


Columns and labels:
[1] = biological target: T1, endogenous CDIN1 with a C-terminal HaloTag-FLAG (HF) tag (human (endogenous in Flp-In 293 T-REx)); test: co-IP; anti-FLAG M2 agarose IP of endogenously HaloTag-FLAG tagged CDAN1 or CDIN1 from Flp-In 293 T-REx lysates; IP buffer 50 mM HEPES pH 7.5, 100 mM KOAc, 2.5 Mg(OAc)2, 1% Triton X-100, 1 mM DTT; immunoblotting
[2] = biological target: T2, Strep-tagged CDAN1 (ST-CDAN1), wildtype; test: pull-down; Strep-Tactin pulldown of ST-CDAN1 from the anti-FLAG eluate (second step of the tandem purification, Expi293); wash buffer without Triton X-100; elution with 10 mM desthiobiotin; immunoblotting

binding [1]	binding [2]	Molecule
binds		endogenous ASF1B (from UniProt Q9NVP2 1-202)
binds	binds	endogenous ASF1A (from UniProt Q9Y294 1-204)
	binds	FLAG-tagged CDIN1 (F-CDIN1) (natural protein, UniProt Q9Y2V0 1-281, looked up, C15orf41); cDNA synthesized by IDT; source: Expi293, transiently transfected, in lysate and purified in complexes (anti-FLAG, Strep-Tactin); not shown: 3xFLAG, N-terminal, kept) MILTKAQYDEIAQCLVSVPPTRQSLRKLKQRFPSQSQATLLSIFSQEYQKHIKRTHAKHHTSEAIESYYQRYLNGVVKNGAAPVLLDLANEVDYAPSLMARLILERFLQEHEETPPSKSIINSMLRDPSQIPDGVLANQVYQCIVNDCCYGPLVDCIKHAIGHEHEVLLRDLLLEKNLSFLDEDQLRAKGYDKTPDFILQVPVAVEGHIIHWIESKASFGDECSHHAYLHDQFWSYWNRFGPGLVIYWYGFIQELDCNRERGILLKACFPTNIVTLCHSIA
